# Laboratory results: the supplement of paper PMC11417369
# Some of the results follow.
# Tested on: PfAP2-HC AP2 domain (GST-tagged)
# Test: gcPBM binding intensity (ln(normalized median fluorescence intensity)); higher = stronger DNA binding
# In short: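 Each value is the highest Masliner-normalised natural-log median intensity across replicate spots of either orientation of a probe. The probes were primer-extended double-stranded 36-bp intergenic genomic sequences on an Agilent 4 × 180k array, alongside negative controls, exposed for 1 h to GST-tagged P. falciparum DNA-binding domains expressed in E. coli. Bound protein was picked up with Alexa488 anti-GST antibody and scanned at 488 nm.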
row,Sequence,gcPBM binding intensity (ln)
1,GGATTCAAAAAAAAAAATAAAAGTAAATAATAAATA [TGCATGCA_negctrl_site348],9.41
2,TTCAATATACATATGTGTACTAAAATAAATAGAAAA [XGTACX_site5708],9.61
3,ATTACAACATTTTATACACACGTGATTATTAATTTT [CACACA_site5581],9.86
4,TATATTTCAGGGGGGAGTACAAATTTTTTTATATAA [XGTACX_site1600],10
5,TTTATGAAGTAAAAATATAAATTCACAAAGTTAAAA [CACACA_negctrl_site1476],9.6
6,AAGAACAGAACGTACACACACATATTTATATTTATA [CACACA_site7594],10.2
7,TTTTCAAAGATATATACACACATGCATATTACGGTG [CACACA_site6505],9.85
8,TTTTTGAGTGCACATACACACAGACATACATTTAAA [CACACA_site5813],9.79
9,CATTATGTACAAAAAGTGCAATATATATTAACACTG,9.61
10,TTATATATATATATATATATATATATATATATAAAT [GTGCAC_negctrl_site126],9.46
11,AACAAAATAAGAAAACGTACAAATGTTTCAAATTCT [XGTACX_site1544],9.75
12,TATGTATATTCTTTCAGTACACATAATGTTGTCATA [XGTACX_site8845],9.66
13,AAAATGTTATTGGAAAGTACAAAAAAAATTATATAA [XGTACX_site4074],9.61
14,TGTATTAACAAAAAGGTGCGGATATATATAAAAAAT [GTGCAC_site9473],9.91
15,TTAATATATATATATATATATATATTTTTATTTTTT [CACACA_negctrl_site763],9.51
16,ATAAAACGTACAATGGTGCATATAAATAATATATAT [GTGCAC_site9960],9.98
17,CATATATAGATATATACACACATATATAAATAAATA [CACACA_site6759],9.97
18,TTCCTCTTAATATGTGCACACTAAATTATAACATAA [CACACA_site3260],9.82
19,CATACCATACATAAAACACACAAAATTTACATAATA [CACACA_site3100],9.94
20,TATAGTTTTATTATTTATGTGTTAAAATTATACAAG [TGCATGCA_negctrl_site246],9.42
21,ACCCATTTTAATTTAGTGCACATTTTACCTTTATAC,10.1
22,TTCTGCAGCAATGTTTTTTTTAAATATTTATATGGT [CACACA_negctrl_site1815],9.66
23,AAAAAAATAACAAAGTGTACTTTTATATTTTACATA [XGTACX_site8954],9.4

row,Sequence,gcPBM binding intensity (ln)
1,TTTTTTTCTTTTTCAAAAAAAAAAAAAAAAAAAATA [GTGCAC_negctrl_site329],8.93
2,GCTAGTTTTTTTTGGCGTACAGTACCGGTTTACTTT [XGTACX_site2606],9.7
3,AATATTTATAAATTTACACACACACGGGTGAACATA [CACACA_site6979],10.3
4,TTTAATTCCATAAGTAAACACACAAATGCCAAAATT [CACACA_site9049],9.76
5,ATTCTAAATTAAAATACACACATATATACATAATAT [CACACA_site2792],9.87
6,CAATTTGGTGTACAGGTGCACATGCCTCACGATAAA [GTGCAC_site9650],9.61
7,AAAAAAAAAAAAAAATGTACATATTAAGTATAATTA [XGTACX_site4616],9.6
8,TTAGCTCAATTTTTGGGTACACACAAATGTATAATA [XGTACX_site5003],9.61
9,GAAAAATGTAAATACATATATGTACACAAATATATA [GTGCAC_negctrl_site557],9.76
10,TATGTATGCCTGTTTTGTACTTAAGAAAATGTTGCT [XGTACX_site8443],9.62
11,AAAAAAAAAAAAAAAAGTACATAATATAAAATCTAA [XGTACX_site6019],9.34
12,TATGTAAAAACAGGCACACATATATCATATATATAT [CACACA_site619],9.96
13,AAAAAAAAATATCACACACACATAAATATAAACCAA [CACACA_site2279],10.5
14,AAAAAAAAAAAAACTACACACATAAAATATATTGTG [CACACA_site805],9.74
15,TAAAACATCAAGGGGTGTACAAAAAAGATGAACAGG [XGTACX_site6929],9.78
16,ATTGGGTTCATCAGCACACACAACATCATGTAATAA [CACACA_site5093],10.1
17,AGAGCATAATAAAACACACACATACATACATATATA [CACACA_site935],10.3
18,AGGCACTTATAATAATGTACATAAATAAAAAGAAAA [XGTACX_site6037],9.66
19,TATAAATATATATGTACACACATATACATGTTGAAT [CACACA_site3118],9.86
20,TATAAACATAAATATACACACAAACATCTATGTATT [CACACA_site4804],10
21,TACATATATATTTGTTCACACACACCCAAAAAAAAA [CACACA_site8788],10.3
22,TCTATGTAGTTTTTATGTACTAAATAAATAAATAAA [XGTACX_site2599],9.35
23,TAGAAGCAGAAACACACACACATACATACACATACA [CACACA_site1467],10.2

row,Sequence,gcPBM binding intensity (ln)
1,TTTTCAATATATATTTGTACTTTATTTTATGATATT [GTGCAC_negctrl_site732],9.89
2,GCATTCATTTTTAATACACACAAAAAAAAAATAAAA [CACACA_site2408],9.65
3,ACTATTAACAGTGTAGTGCAAAAAGGTTAATTATTA,10.1
4,TAAATGTCCTTATTTGCACACACACCGATAAGAAAT [CACACA_site5723],10
5,TTTGAAATGATATATAAACACACATATATATATATA [CACACA_site9170],10.1
6,CTAACAACCAAACGCACACACACAAAAAAAAAAATA [CACACA_site400],10.8
7,ATATTGAATTCCAACACATGCAAAACTTTCGGTTTT [TGCATGCA_site485],9.64
8,TATTAAAAGGTGAGTACACACATATATGCGTATATA [CACACA_site2102],9.85
9,AACAACTATTAATTTACACACATGTATATATCTTAC [CACACA_site7459],10
10,TACGCACAAAAATATACACACACACCGATATATTTA [CACACA_site9213],10.3
11,AGACATTTTTAAGCAAAACATTCATCATCTTATAAT [CACACA_negctrl_site1539],9.55
12,TATTTTACACATTTACGTACATAAATATATATATAT [XGTACX_site8788],9.92
13,AAAAAAAAAAAAGGCACACAAACATATGTAGACATA [CACACA_site2284],10
14,TCGTGTGTAATATTATATATATATATATAATATATA [TGCATGCA_negctrl_site289],9.69
15,TTTTAAGGTGTGAAGGTGCAAAAAGGTAAATAGGAA,9.8
16,TAAACAGAAGCACATACACACACTCAAAAAAAAAAA [CACACA_site3051],10.5
17,CACAAACACCCAAACACACACACACCGACATACATA [CACACA_site4410],11.1
18,AAAATACATAAACACACACACACACCGATATATATA [CACACA_site9186],11.6
19,AAATTGTCAAAACACGCACACACATATACATAATAA [CACACA_site1743],10.9
20,GTGATACGCTATAGGACACACGCTTAATAATTATAA [CACACA_site1694],9.6
21,ATCATAAATTATTATACACACAATACGTGACCTATT [CACACA_site1906],9.91
22,TCTTTTATATTGTAGAGTACATATTTTCAATATATA [XGTACX_site5586],9.57
23,TTCTTTTATAAAAGTAGTACAATTATATTGTAATTA [XGTACX_site2855],9.39

row,Sequence,gcPBM binding intensity (ln)
1,AAAAAAAAAAAACACACACACAAAATAAACAAACAA [CACACA_site2721],10.5
2,ATTATAATTATCAAGGTGCGTGTATTATAATAAATA [GTGCAC_site9917],9.72
3,TAATATAATAATAATTGTACTTTTCATAGTGTAATT [XGTACX_site8152],9.45
4,GGATATTATATAAAGTGTACAAGACAAATATATACA [XGTACX_site8173],10
5,ATATATCAAGGGAGTGAATGTTATGCATATGAATAT [TGCATGCA_negctrl_site573],9.68
6,AATAAATTAAATAAAAATGTTTAACATAAAATATGA [GTGCAC_negctrl_site373],9.74
7,AAATTAACAAACTGTAGTACTAACAATATATACAAA [XGTACX_site1772],9.78
8,ATTTTATTTTTTTGAAGTACGAATTCCGAGAAGAAA [XGTACX_site43],9.35
9,AAACAAAACAACTAAGTGCATAAAAATAAAATAAAT,9.99
10,TATAGTTCTTCTATTTGTACATATATTATTATTTAA [XGTACX_site895],9.77
11,TATTCAAAAATATAAACAATGAAACAGTATAATATG [CACACA_negctrl_site1482],9.59
12,TTATAATCAATGAATACACACATATATTTAATTAAT [CACACA_site3613],9.67
13,AATTTTCCATAGATTGTGCACAAATTTTTATTTTGT,9.82
14,AAGAAAAAGACTTCATGAAAAAGAATTTTTTTAATT [TGCATGCA_negctrl_site473],9.4
15,ATATATTTTTTTTTTATTTTATTATTATAATTTATC [XGTACX_negctrl_site16],9.7
16,TAATATTATTTTTCAGTGCAATATAACCTTAGAATT [GTGCAC_site9417],9.33
17,AACTGTAAAAAATATAAACACACATAGAAATATATA [CACACA_site8002],10.1
18,ATATATATATATAATAGTACATATATTTTGAAAGAT [XGTACX_site5800],9.77
19,TATGTGTGAAAAAAATGTACATATATATAAATTATA [XGTACX_site7202],9.81
20,AAAAATGAAAAATGAAAAATGAAAAATGAAAAATAA [CACACA_negctrl_site695],9.78
